# Data reported in the supplement of paper PMC4604168 (melanoma cell lines).
# The list shows a part of the results. Most values come without repeats; read them as rough.
# Tested on: RVH-421
# Assay: cell count relative to DMSO control; melanoma cells; higher = more viable cells
# Conditions: library dose: standard library concentration; 72 h
# 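Also: cells treated in 1,536-well plates, then fixed and DAPI-stained, with nuclei counted from automated high-throughput microscope images.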
row,Structure (SMILES),cell count [%]
1,"NC(=O)c1ccc(N(C(N)=O)c2c(F)cccc2F)nc1-c1ccc(F)cc1F + O=C1NC(=O)/C(=C/c2ccc(-c3ccc(F)cc3O)o2)S1 [AS252424] (first compound 2 µM, partner dose 5 µM)",93.7
2,"NC(=O)c1ccc(N(C(N)=O)c2c(F)cccc2F)nc1-c1ccc(F)cc1F + COc1ccc(COc2ccc(Cc3cnc(N)nc3N)cc2OC)cc1 [GW2580] (first compound 2 µM, partner dose 5 µM)",79
3,"NC(=O)c1ccc(N(C(N)=O)c2c(F)cccc2F)nc1-c1ccc(F)cc1F + O=C(O)C(=O)Nc1sc2c(c1C(=O)O)CCNC2 [TCS401] (first compound 2 µM, partner dose 8.33333 µM)",80.1
4,"CC(C)(C)c1cnc(CSc2cnc(NC(=O)C3CCNCC3)s2)o1 + CC(C)CCN1c2nc(Nc3cc(F)c(O)c(F)c3)ncc2N(C)C(=O)C1C [BID1870] (first compound 0.05 µM, partner dose 1 µM)",64.2
5,"COc1cc2c(Oc3ccc4[nH]c(C)cc4c3F)ncnc2cc1OCCCN1CCCC1 [cediranib] + COc1ccc(-c2ccc3c(N4CCOCC4)nc(N4C[C@@H](C)O[C@@H](C)C4)nc3n2)cc1CO [KU0063794] (first compound 2 µM, partner dose 0.1 µM)",59.7
6,"CCc1ccc(CCOc2ccc(CC3SC(=O)NC3=O)cc2)nc1 (stereo not given) [pioglitazone] + Cn1cc(/C=C2\C(=O)Nc3cccnc32)c2ccccc21 [GW441756] (first compound 10 µM, partner dose 2 µM)",111
7,"NC(=O)c1ccc(N(C(N)=O)c2c(F)cccc2F)nc1-c1ccc(F)cc1F + O=c1cc(-c2cccc3c2Sc2ccccc2S3)oc(N2CCOCC2)c1 [KU55933] (first compound 2 µM, partner dose 5 µM)",78.1
8,"CN(NC(=O)CC(=O)NN(C)C(=S)c1ccccc1)C(=S)c1ccccc1 + CCc1ccc(CCOc2ccc(CC3SC(=O)NC3=O)cc2)nc1 [pioglitazone] (first compound 0.03 µM, partner dose 10 µM)",34.4
9,"NC(=O)c1ccc(N(C(N)=O)c2c(F)cccc2F)nc1-c1ccc(F)cc1F + c1cc(-c2cnn3cc(-c4ccc(OCCN5CCCCC5)cc4)cnc23)ccn1 [Dorsomorphin] (first compound 2 µM, partner dose 2 µM)",125
10,"Cc1ccc(NC(=O)c2cccc(N(C)C)c2)cc1NC(=O)c1ccc(O)cc1 + COc1ccc(-c2ccc3c(N4CCOCC4)nc(N4C[C@@H](C)O[C@@H](C)C4)nc3n2)cc1CO [KU0063794] (first compound 10 µM, partner dose 0.1 µM)",92.2
11,"NC(=O)c1ccc(N(C(N)=O)c2c(F)cccc2F)nc1-c1ccc(F)cc1F + CCN(CC)CCCCNc1ncc2cc(-c3cc(OC)cc(OC)c3)c(NC(=O)NC(C)(C)C)nc2n1 [PD173074] (first compound 2 µM, partner dose 0.5 µM)",103
12,"CCCCCCCCc1ccc(CCC(N)(CO)CO)cc1 [fingolimod] + Oc1nc(-c2ccc(C(F)(F)F)cc2)nc2c1CSCC2 [XAV939] (first compound 10 µM, partner dose 10 µM)",243
13,"NC(=O)c1ccc(N(C(N)=O)c2c(F)cccc2F)nc1-c1ccc(F)cc1F + COc1cc2ncnc(Nc3ccc(Oc4ccccc4)cc3)c2cc1OC [SrcI1] (first compound 2 µM, partner dose 10 µM)",83
14,"CCCCCCCCc1ccc(CCC(N)(CO)CO)cc1 [fingolimod] + Oc1cc(-c2nc(-c3ccccc3)[nH]c2-c2ccncc2)ccc1Cl [L779450] (first compound 10 µM, partner dose 1 µM)",8.75
15,"NC(=O)c1ccc(N(C(N)=O)c2c(F)cccc2F)nc1-c1ccc(F)cc1F + Oc1cc(-c2nc(-c3ccccc3)[nH]c2-c2ccncc2)ccc1Cl [L779450] (first compound 2 µM, partner dose 1 µM)",87
16,"COc1cc2c(Oc3ccc4[nH]c(C)cc4c3F)ncnc2cc1OCCCN1CCCC1 [cediranib] + COC(=O)c1sccc1S(=O)(=O)Nc1ccc(Nc2ccccc2)cc1OC [GSK0660] (first compound 2 µM, partner dose 5 µM)",79
17,"NC(=O)c1ccc(N(C(N)=O)c2c(F)cccc2F)nc1-c1ccc(F)cc1F + Cc1cc([N+](=O)[O-])ccc1NS(=O)(=O)c1cc(Cl)ccc1Cl [FH535] (first compound 2 µM, partner dose 5 µM)",62.6
18,"Cc1ccc(NC(=O)c2cccc(N(C)C)c2)cc1NC(=O)c1ccc(O)cc1 + N#Cc1c(O)c2c(-c3ccc(-c4ccccc4O)cc3)csc2[nH]c1=O [A769662] (first compound 10 µM, partner dose 10 µM)",99.8

row,Structure (SMILES),cell count [%]
1,"NC(=O)c1ccc(N(C(N)=O)c2c(F)cccc2F)nc1-c1ccc(F)cc1F + COc1cc(N2CCC(N3CCN(C)CC3)CC2)ccc1Nc1ncc(Cl)c(Nc2ccccc2S(=O)(=O)C(C)C)n1 [NVP-TAE684] (first compound 2 µM, partner dose 0.4 µM)",283
2,"CCc1ccc(CCOc2ccc(CC3SC(=O)NC3=O)cc2)nc1 (stereo not given) [pioglitazone] + COc1ccc2c(c1)CCC1C2CCC2(C)C(NCCCCCCN3C(=O)C=CC3=O)CCC12 [U73122] (first compound 10 µM, partner dose 2 µM)",86.9
3,"NC(=O)c1ccc(N(C(N)=O)c2c(F)cccc2F)nc1-c1ccc(F)cc1F + COc1ccc2c(c1)CCC1C2CCC2(C)C(NCCCCCCN3C(=O)C=CC3=O)CCC12 [U73122] (first compound 2 µM, partner dose 2 µM)",68.2
4,"NC(=O)c1ccc(N(C(N)=O)c2c(F)cccc2F)nc1-c1ccc(F)cc1F + O=S(=O)(c1ccccc1)N(CC(F)(F)F)c1ccc(C(O)(C(F)(F)F)C(F)(F)F)cc1 [T0901317] (first compound 2 µM, partner dose 7 µM)",121
5,"CCCCCCCCc1ccc(CCC(N)(CO)CO)cc1 [fingolimod] + Cc1cc([N+](=O)[O-])ccc1NS(=O)(=O)c1cc(Cl)ccc1Cl [FH535] (first compound 10 µM, partner dose 5 µM)",45.7
6,"CCCCCCCCc1ccc(CCC(N)(CO)CO)cc1 [fingolimod] + COc1ccc2c(c1)CCC1C2CCC2(C)C(NCCCCCCN3C(=O)C=CC3=O)CCC12 [U73122] (first compound 10 µM, partner dose 2 µM)",61.6
7,"NC(=O)c1ccc(N(C(N)=O)c2c(F)cccc2F)nc1-c1ccc(F)cc1F + COC(=O)c1sccc1S(=O)(=O)Nc1ccc(Nc2ccccc2)cc1OC [GSK0660] (first compound 2 µM, partner dose 5 µM)",104
8,"CCCCCCCCc1ccc(CCC(N)(CO)CO)cc1 [fingolimod] + Cc1cc(Nc2cc(N3CCN(C)CC3)nc(/C=C/c3ccccc3)n2)n[nH]1 [ENMD2076] (first compound 10 µM, partner dose 0.2 µM)",21.7
9,"NC(=O)c1ccc(N(C(N)=O)c2c(F)cccc2F)nc1-c1ccc(F)cc1F + COc1ccc(-c2ccc3c(N4CCOCC4)nc(N4C[C@@H](C)O[C@@H](C)C4)nc3n2)cc1CO [KU0063794] (first compound 2 µM, partner dose 0.1 µM)",81.3
10,"CCCCCCCCc1ccc(CCC(N)(CO)CO)cc1 [fingolimod] + O=S(=O)(c1ccccc1)N(CC(F)(F)F)c1ccc(C(O)(C(F)(F)F)C(F)(F)F)cc1 [T0901317] (first compound 10 µM, partner dose 7 µM)",7.52
11,"CCCCCCCCc1ccc(CCC(N)(CO)CO)cc1 [fingolimod] + c1cc(-c2cnn3cc(-c4ccc(OCCN5CCCCC5)cc4)cnc23)ccn1 [Dorsomorphin] (first compound 10 µM, partner dose 2 µM)",14.5
12,"CC(C)(C)c1cnc(CSc2cnc(NC(=O)C3CCNCC3)s2)o1 + NCC(=O)Nc1ccc(-n2nc(C(F)(F)F)cc2-c2ccc3c(ccc4ccccc43)c2)cc1 [OSU03012] (first compound 0.05 µM, partner dose 5 µM)",84.6
13,"NC(=O)c1ccc(N(C(N)=O)c2c(F)cccc2F)nc1-c1ccc(F)cc1F + O=C(Nc1ccccc1)c1cc([N+](=O)[O-])ccc1Cl [GW9662] (first compound 2 µM, partner dose 10 µM)",64.8
14,"CCCCCCCCc1ccc(CCC(N)(CO)CO)cc1 [fingolimod] + N#Cc1c(O)c2c(-c3ccc(-c4ccccc4O)cc3)csc2[nH]c1=O [A769662] (first compound 10 µM, partner dose 10 µM)",22.3
15,"CCCCCCCCc1ccc(CCC(N)(CO)CO)cc1 [fingolimod] + CC(C)CCN1c2nc(Nc3cc(F)c(O)c(F)c3)ncc2N(C)C(=O)C1C [BID1870] (first compound 10 µM, partner dose 1 µM)",171
16,"NC(=O)c1ccc(N(C(N)=O)c2c(F)cccc2F)nc1-c1ccc(F)cc1F + N#Cc1c(O)c2c(-c3ccc(-c4ccccc4O)cc3)csc2[nH]c1=O [A769662] (first compound 2 µM, partner dose 10 µM)",92.3
17,"CCCCCCCCc1ccc(CCC(N)(CO)CO)cc1 [fingolimod] + O=C(O)c1ccc(-c2c[nH]c3ncc(-c4ccccc4)cc23)cc1C1CCCC1 [GSK650394] (first compound 10 µM, partner dose 0.8 µM)",9.15
